Assay results published in PubChem BioAssay AID493208 (National Center for Advancing Translational Sciences (NCATS), 2011).
Among all 44,000 compounds or so, about 340 (0.77%) were called active. Roughly 5% stayed inconclusive and do not appear here. Calls follow the shape of the dose curve; as a rule, active = well fitted inhibition curve with a large enough effect; inconclusive = small, poorly fitted or top-dose-only effect; inactive = flat fitted curve, though single readings scatter. The list shows a part of the results.

Test: Acumen qHTS Assay for Inhibitors of the mTORC1 Signaling Pathway in MEF (Tsc2-/-, p53-/-) Cells: Sytravon;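 also: plate controls were DMSO for no effect and rapamycin for full effect; nearly all actives have a fitted effect of over 50% in size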
Settings: phospho-rpS6 immunofluorescence/PI, 24 h; series mostly up to 38.3 µM; activity change, negative = inhibition: at the top concentration
Summary of the method: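 Tsc2-/-, p53-/- MEFs (empty-vector stable line) in DMEM + 10% FBS were treated with compounds 24 h at 37 degree Celsius, fixed, and immunostained for phospho-rpS6 (Alexa-488) with propidium iodide counterstain. Laser-scanning cytometry gave % positive cells, normalized against 7.5 nM rapamycin and DMSO.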
In the case of `O=C(NCc1cccnc1)c1nn(-c2ccc(Cl)cc2)nc1CO`, the “activity change, negative = inhibition” value was inactive: 0.965%. In the case of `COc1ccc2nc(N(Cc3cccnc3)C(C)=O)sc2c1`, the “activity change, negative = inhibition” value was inactive: -1.46%. In the case of `COc1ccc(C2CC(=O)N3CN(C4CCCCC4)CSC3=C2C#N)c(OC)c1` (centres undefined), the “activity change, negative = inhibition” value was inactive: 9.09%. For `CCC(Oc1ccccc1-c1nnc(-c2ccccc2)o1)C(=O)Nc1ccc(C(C)=O)cc1` (centres undefined), the “activity change, negative = inhibition” value was inactive: 1.47%. In the case of `COC(=O)c1ccc(NC(=O)CSc2ccc(-c3sc(-c4ccccc4)nc3C)nn2)cc1`, the “activity change, negative = inhibition” value was inactive: 2.32%. In the case of `COc1ccccc1C1CC(=O)NC(C)=C1C(=O)OC1CCCCCC1` (centres undefined), the “activity change, negative = inhibition” value was inactive: 0.771%. For `O=C(NC1CC(=O)N(c2ccc(F)cc2)C1)c1ccco1` (centres undefined), the “activity change, negative = inhibition” value was inactive: -4.04%. With `COc1ccc(Nc2ncc3c(n2)CCN(Cc2ccccc2C)C3)c(OC)c1` the “activity change, negative = inhibition” value was inactive: 0%. With `O=C(Nc1cccc(C(F)(F)F)c1)c1ccc2c(c1)nnn2C1CCCC1` the “activity change, negative = inhibition” value was inactive: -12%. In the case of `CCc1ccc(-n2c(=O)c3c4c(sc3n(Cc3ccccc3C#N)c2=O)CCC4)cc1`, the “activity change, negative = inhibition” value was inactive: -1.33%. For `COc1ccc(S(=O)(=O)NCCc2nnc3ccc(SCC(=O)Nc4ccccc4C)nn23)cc1`, the “activity change, negative = inhibition” value was inactive: -0.914%. In the case of `Cn1cc(CN(C(=O)Nc2ccccc2)C2CCCCC2)c2ccccc21`, the “activity change, negative = inhibition” value was inactive: -6.39%. With `COc1ccc(-c2nc3sc(CCNC(=O)c4ccco4)c(C)n3n2)cc1` the “activity change, negative = inhibition” value was inactive: 1.54%. For `CCS(=O)(=O)Nc1ccc(-c2cn3ccsc3n2)cc1`, the “activity change, negative = inhibition” value was inactive: 7.01%. In the case of `COc1cc2c(cc1OC)CN(C(=O)Nc1ccccc1)CC2`, the “activity change, negative = inhibition” value was inactive: -8.46%. In the case of `Cc1cccc(N2CCN(S(=O)(=O)c3c(C)nc4scc(C)n4c3=O)CC2)c1C`, the “activity change, negative = inhibition” value was inactive: 3.04%. For `COc1ccccc1NC(=O)c1ccc(COc2ccc(C)c(C)c2)o1`, the “activity change, negative = inhibition” value was inactive: -2%. For `CCCCn1c(=O)c2oc3ccccc3c2n(CC(=O)Nc2ccc(CC)cc2)c1=O`, the “activity change, negative = inhibition” value was inactive: 1.04%. In the case of `CCn1cc2nc(SCc3cc(C)ccc3C)n(CCc3ccccc3)c(=O)c2n1`, the “activity change, negative = inhibition” value was inactive: 4.92%. In the case of `CC1CCN(C(c2ccccc2)c2sc3nc(-c4ccco4)nn3c2O)CC1` (centres undefined), the “activity change, negative = inhibition” value was inactive: 1.14%. For `O=C(CSc1nc(-c2ccccc2)cn1-c1ccccc1F)Nc1ccc(F)cc1`, the “activity change, negative = inhibition” value was inactive: -9.79%. In the case of `COc1ccc(CNS(=O)(=O)c2cc3c(cc2Cl)N(C(C)=O)CCO3)cc1`, the “activity change, negative = inhibition” value was inactive: 4.33%. With `COc1cc(NC(=O)CN2CCN(S(=O)(=O)c3ccc(Br)cc3)CC2)cc(OC)c1` the “activity change, negative = inhibition” value was inactive: -3.92%. For `Cc1ccc(Nc2cc(C(=O)NCCc3ccccc3)c3ccccc3n2)c(C)c1`, the “activity change, negative = inhibition” value was inactive: -9.09%. For `COc1ccc(NC(=O)CSc2nc(-c3cc(OC)c(OC)c(OC)c3)[nH]c2-c2ccc(F)cc2)cc1`, the “activity change, negative = inhibition” value was inactive: -10.6%. In the case of `O=C(Cn1nc(-c2ccc(Cl)cc2)c2ccccc2c1=O)Nc1cccc(Br)c1`, the “activity change, negative = inhibition” value was inactive: -20.8%. In the case of `CCCCC(=O)Nc1c(C(=O)N2CCN(c3ccccc3F)CC2)oc2ccccc12`, the “activity change, negative = inhibition” value was inactive: -12.5%. With `COc1ccc(CNC(=O)C2CCN(c3nnc(-n4c(C)ccc4C)s3)CC2)c(OC)c1` the “activity change, negative = inhibition” value was inactive: 0.0796%. In the case of `Cc1nc2ccc(S(=O)(=O)N(C)CC(=O)Nc3ccc(C(C)C)cc3)cc2s1`, the “activity change, negative = inhibition” value was inactive: -11.8%. For `CC1CCN(S(=O)(=O)c2ccc3c(c2)c(=O)c(C(=O)N2CCN(c4cccc(Cl)c4)CC2)cn3C)CC1`, the “activity change, negative = inhibition” value was inactive: 2.45%. For `Cc1ccc(-n2ncc(C(=O)NCCN3CCc4ccccc4C3)c2C2CCN(C(=O)OC(C)(C)C)CC2)cc1C`, the “activity change, negative = inhibition” value was inactive: -4.61%. For `COc1ccc(NC(=O)CN2CCN(CC(=O)Nc3ccccc3F)CC2)c(OC)c1`, the “activity change, negative = inhibition” value was inactive: 5.72%. With `O=c1c2cc3c(cc2nc2sc(Nc4ccccc4)nn12)OCO3` the “activity change, negative = inhibition” value was inactive: 3.66%. In the case of `COc1ccc(-c2nc(SCC(=O)NC(C)CCc3ccccc3)n[nH]2)cc1` (centres undefined), the “activity change, negative = inhibition” value was inactive: -23.5%. In the case of `COc1ccc(S(=O)(=O)c2c(Nc3cccc(C)c3C)sc(C(=O)c3ccccc3)c2N)cc1`, the “activity change, negative = inhibition” value was inactive: -2.21%. For `CCOC(=O)c1c(C)oc2nc(C)nc(NCCc3ccc(OCC)c(OCC)c3)c12`, the “activity change, negative = inhibition” value was inactive: 2.52%. In the case of `CCN(c1ccccc1)S(=O)(=O)c1c(C)nc2scc(C)n2c1=O`, the “activity change, negative = inhibition” value was inactive: -3.04%. For `COc1ccc(N2CCN(c3ncnc4c3cnn4-c3ccc(F)cc3)CC2)cc1`, the “activity change, negative = inhibition” value was inactive: -7.13%. In the case of `CCc1ccccc1NC(=O)CCCSc1nc(-c2ccco2)cc(C(F)(F)F)n1`, the “activity change, negative = inhibition” value was inactive: -2.31%. With `COc1ccc(NC(=O)C2=CC(c3ccco3)=NS(=O)(=O)N2C)cc1OC` the “activity change, negative = inhibition” value was inactive: 3.59%. In the case of `CCN(c1ccccc1)S(=O)(=O)c1nnc(NC(=O)c2ccccc2OC)s1`, the “activity change, negative = inhibition” value was inactive: 3.18%. In the case of `CCOCCc1nn2c(=O)cc(COC(=O)c3ccc(NC(=O)C4CCCCC4)cc3)nc2s1`, the “activity change, negative = inhibition” value was inactive: 0%. With `Cc1cc(NC(=O)c2ccc3c(c2)N(Cc2cccc(Cl)c2)C(=O)c2ccccc2S3(=O)=O)ccc1Br` the “activity change, negative = inhibition” value was inactive: 3.15%. With `O=C(CS(=O)(=O)c1cccc2nsnc12)N1CCN(c2ccccc2F)CC1` the “activity change, negative = inhibition” value was inactive: 0.0433%. With `COc1ccccc1CNc1nc2ccc(C)cc2n2nnnc12` the “activity change, negative = inhibition” value was inactive: 0%. In the case of `Cc1nn(-c2ccccc2)c(OC(=O)c2ccccc2Br)c1S(=O)(=O)c1ccccc1`, the “activity change, negative = inhibition” value was inactive: -2.21%. For `O=C1CC(c2c(Cl)cccc2Cl)c2c(ccc3ccccc23)N1` (centres undefined), the “activity change, negative = inhibition” value was inactive: -24.5%. With `CC1=C(C(=O)Nc2ccccc2Cl)C(c2cccc(O)c2)n2ncnc2N1` (centres undefined) the “activity change, negative = inhibition” value was inactive: 0.878%. With `COc1cc(C2C(=O)N(C3CCCCC3)CC(=O)N2CCc2ccccc2)ccc1OC(C)C` (centres undefined) the “activity change, negative = inhibition” value was inactive: 1.25%.
